Reference: PubChem BioAssay AID504339 (National Center for Advancing Translational Sciences (NCATS), 2011)
The campaign covered roughly 390,000 compounds. About 17,000 (4.4%) were called active. The shares of active, inactive and inconclusive entries below differ from those in the screen. Calls come from the whole dose curve; as a rule, active = well fitted inhibition curve with a large enough effect; inconclusive = small, poorly fitted or top-dose-only effect; inactive = no such curve, though single readings can be large or run the other way. Where the call is inconclusive, the potency comes from a doubtful curve fit. The source holds several records for some structures; these can differ, active in one and inactive in another.

Target: Lysine-specific demethylase 4A (Homo sapiens) (UniProt O75164)
Test: qHTS Assay for Inhibitors of JMJD2A-Tudor Domain; note: nearly all actives have a fitted effect of over 50% in size
Settings: AlphaScreen JMJD2A-Tudor / H3K4me3 peptide binding; series mostly up to 114 µM
Potency is the fitted concentration of half-maximal effect; tags give direction and shape of the fitted curve.

Chain of UniProt O75164 (O75164 whole entry, looked up, the tested form may be a part): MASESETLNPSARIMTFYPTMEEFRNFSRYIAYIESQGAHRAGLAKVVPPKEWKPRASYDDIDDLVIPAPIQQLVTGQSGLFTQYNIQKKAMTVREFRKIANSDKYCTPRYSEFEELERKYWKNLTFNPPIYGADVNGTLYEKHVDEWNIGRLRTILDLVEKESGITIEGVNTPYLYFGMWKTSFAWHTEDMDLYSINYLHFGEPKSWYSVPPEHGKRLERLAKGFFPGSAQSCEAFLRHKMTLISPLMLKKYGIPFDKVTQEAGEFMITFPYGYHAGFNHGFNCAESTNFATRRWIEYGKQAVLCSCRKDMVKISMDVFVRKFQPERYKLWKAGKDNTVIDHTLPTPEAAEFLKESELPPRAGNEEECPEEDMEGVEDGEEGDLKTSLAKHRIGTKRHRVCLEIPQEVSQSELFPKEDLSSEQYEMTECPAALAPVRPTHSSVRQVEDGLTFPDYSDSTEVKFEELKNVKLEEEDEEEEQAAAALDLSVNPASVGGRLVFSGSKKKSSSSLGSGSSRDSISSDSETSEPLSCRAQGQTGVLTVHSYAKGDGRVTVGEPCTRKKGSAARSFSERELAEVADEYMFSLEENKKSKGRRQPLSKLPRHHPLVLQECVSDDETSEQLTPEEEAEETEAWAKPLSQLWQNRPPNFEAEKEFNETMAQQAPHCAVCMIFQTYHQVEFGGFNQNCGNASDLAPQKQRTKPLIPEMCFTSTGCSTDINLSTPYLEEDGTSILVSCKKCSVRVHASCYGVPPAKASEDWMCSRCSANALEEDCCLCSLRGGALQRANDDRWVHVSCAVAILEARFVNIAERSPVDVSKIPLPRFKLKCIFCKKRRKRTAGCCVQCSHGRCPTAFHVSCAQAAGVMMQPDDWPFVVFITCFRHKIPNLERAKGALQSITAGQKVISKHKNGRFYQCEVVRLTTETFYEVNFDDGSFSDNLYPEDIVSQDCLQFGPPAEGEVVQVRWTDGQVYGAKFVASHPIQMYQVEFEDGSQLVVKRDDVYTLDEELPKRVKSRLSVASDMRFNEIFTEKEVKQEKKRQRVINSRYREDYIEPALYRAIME

| SMILES | Potency |
| --- | --- |
| O=C(CCc1ccccc1)NC1CC(=O)N(c2ccccc2)C1 (stereo not given) | inactive |
| O=[N+]([O-])c1ccc(C2Nc3cccc4cccc(c34)N2)cc1 | inconclusive: 12.6 µM [inhibitor, full curve] |
| CC1=NNC(=O)C1CC(=O)N/N=C/C=C/c1ccccc1 (stereo not given) | inconclusive: 39.8 µM [inhibitor, partial curve] |
| COc1cccc(NC(=S)N(CCc2c(C)[nH]c3ccc(C)cc23)Cc2cccs2)c1 | inconclusive: 56.2 µM [inhibitor, partial curve] |
| COc1ccc(-c2cnc(C)o2)cc1S(=O)(=O)Nc1ccc(C)c(N(C)C)c1 | inconclusive: 79.4 µM [inhibitor, partial curve] |
| N#CC(=C1C=CC(=NO)C(Cl)=C1)c1ccc(Cl)cc1 | active: 20 µM |
| Nc1cc(-c2ccccc2)ccc1O | inconclusive: 12.6 µM [inhibitor, partial curve] |
| N[C@@H](Cc1ccccc1)C(=O)N1CCC(C(=O)N[C@@H](CCC(=O)O)C(=O)O)CC1 | active: 17.8 µM |
| COc1cc(-c2n[nH]c(=S)n2Cc2ccccc2)cc(OC)c1OC | inconclusive: 63.1 µM [inhibitor, single point] |
| COc1ccc(Nc2ccc(C(F)(F)F)cc2[N+](=O)[O-])cn1 | active: 56.2 µM |
| CC(=O)N1CCN(c2ccc(NCc3ccccc3)cc2)CC1 | inconclusive: 12.6 µM [inhibitor, full curve] |
| COCCCNC(NC(=O)c1ccc(C)cc1)C(Cl)(Cl)Cl (stereo not given) | inactive |
| CCCn1c(N)c(N(CCOC)C(=O)c2cc(-c3ccco3)nc3ccccc23)c(=O)[nH]c1=O | inconclusive: 50.1 µM [inhibitor, partial curve] |
| CC(CNc1ccccc1O)C(=O)O (stereo not given) | active: 3.16 µM |
| Cn1c(COc2ccc(Br)cc2)nnc1SC1CCc2ccccc2C1=O (stereo not given) | inconclusive: 70.8 µM [inhibitor, single point] |
| Cc1ccccc1-c1n[nH]c(=S)n1C | active: 7.08 µM |
| O=C(Nc1ccccc1Br)C1CC(=O)N(c2ccc3c4c(cccc24)CC3)C1 (stereo not given) | inactive |
| O=C(CSc1ccc2nnc(-c3ccccn3)n2n1)Nc1ccc(F)cc1 | inconclusive: 50.1 µM [inhibitor, partial curve] |
| COc1ccc(C2CC(c3ccc([N+](=O)[O-])cc3)=NN2C(=O)c2ccccc2)cc1OC (stereo not given) | inconclusive: 25.1 µM [inhibitor, full curve] |
| N#CC1=C(N)N(c2ccc(F)cc2)C2=C(C1c1ccc(O)cc1)S(=O)(=O)CC2 (stereo not given) | active: 31.6 µM |
| Cc1ccc(-c2nc3cc(Br)cnc3nc2-c2ccc(C)cc2)cc1 | inconclusive: 56.2 µM [inhibitor, partial curve] |
| Cc1cccc(NC(=O)CCn2nc(-c3ccccc3)c3ccccc3c2=O)c1 | inactive |
| CCC1=NN2C(=N)/C(=C\c3ccc(OCc4cc(=O)n5nc(CC)sc5n4)c(OC)c3)C(=O)N=C2S1 | inconclusive: 56.2 µM [inhibitor, partial curve, poor fit] |
| CN1/C(=C\C(=O)COC(=O)c2ccc(O)c(O)c2)C(C)(C)c2ccccc21 | inconclusive: 56.2 µM [inhibitor, partial curve] |
| O=C1OC[C@H]2CCCN2C(=O)[C@@H](CC(=O)N(CCO)Cc2ccccc2)C/C=C\C[C@H]1Cc1ccc(F)cc1 | inactive |

| SMILES | Potency |
| --- | --- |
| COc1cccc(NC(=O)COC(=O)C2CCCCC2)c1 | inactive |
| COc1cc(C2Nc3cccc4cccc(c34)N2)cc(OC)c1OC(C)=O | inconclusive: 44.7 µM [inhibitor, partial curve] |
| O=C(O)c1ccc(NS(=O)(=O)c2ccc3nnn(O)c3c2)cc1 | inconclusive: 79.4 µM [inhibitor, single point] |
| O=C(CCCc1ccccc1)Nc1ccnn1C1CCN(Cc2ccc(Cl)cc2)CC1 | inactive |
| Cc1ccc(-c2nn(-c3ccccc3)c3[nH]c(=O)c(CNCc4ccccc4)cc23)cc1 | inconclusive: 39.8 µM [inhibitor, partial curve] |
| CCOC(=O)C1CCN(S(=O)(=O)c2ccc3c(c2)NC(=O)C(C)C(=O)N3)CC1 (stereo not given) | inactive |
| CC(C)N1CCc2c(sc(NC(=O)c3nc4ccccc4s3)c2C(N)=O)C1 | inconclusive: 35.5 µM [inhibitor, partial curve] |
| CCOC(=O)c1cc(-c2ccc(C)cc2)n(CCC(=O)Nc2ccc(OC)c(OC)c2)c1C | inconclusive: 22.4 µM [inhibitor, full curve] |
| O=C(O)CSc1cc(C(=O)c2ccccc2O)cn2c(=O)c3c4c(sc3nc12)CCCC4 | active: 35.5 µM |
| Clc1nc(Nc2ccc(N3CCOCC3)cc2)c2ccccc2n1 | inconclusive: 100 µM [inhibitor, partial curve] |
| CN1CCCCCC1=Nc1ccccc1C#N | active: 1.78 µM |
| O=C1C(C2=C(O)c3ccccc3C2=O)=Nc2ccccc21 | active: 31.6 µM |
| Cc1ccc(/C=C/C(=O)O)cc1S(=O)(=O)N(CCO)CCO | inactive |
| O=C(COC(=O)/C=C/c1ccc(F)cc1)NC1CCCCCC1 | inactive |
| O=C(CCn1c(=O)c2cccn2c2cccnc21)N1CCN(c2cccc(Cl)c2)CC1 | active: 15.8 µM |
| Cc1cccc(-c2nc(SCC(=O)Nc3ccc4c(c3)OCO4)c(-c3ccccc3)[nH]2)c1 | inconclusive: 25.1 µM [inhibitor, partial curve] |
| CCN(C(=O)COC(=O)/C=C/c1ccc(C)o1)c1c(N)n(Cc2ccccc2)c(=O)[nH]c1=O | active: 79.4 µM |
| C[N+](C)(C)CC/C=C1/c2ccccc2CSc2ccccc21 | active: 50.1 µM |
| O=c1cc(CN2CCN(c3ccccc3F)CC2)c2cc(O)c(-c3ccccc3)cc2o1 | active: 89.1 µM |
| COc1ccc2nc(NC(=S)N(C)C)sc2c1 | active: 25.1 µM |
| c1ccc2nc3c(nc2c1)CCc1nonc1-3 | inactive |
| O=C(O)C1CC=CCC1C(=O)Nc1cccc([N+](=O)[O-])c1 (stereo not given) | inactive |
| COc1cc(/C=N/N2CCN(c3ccccc3OC)CC2)ccc1O | inconclusive: 39.8 µM [inhibitor, partial curve] |
| Cn1cnc([N+](=O)[O-])c1Nc1ccccc1O | inconclusive: 25.1 µM [inhibitor, single point] |
| CCc1nnc(NC(=O)CSc2ncc(-c3ccccc3)n2CC)s1 | inconclusive: 44.7 µM [inhibitor, full curve, poor fit] |

| SMILES | Potency |
| --- | --- |
| Cc1nc(C)c(-c2csc(Nc3ccc(N)cc3)n2)s1 | active: 50.1 µM |
| Cc1nn(-c2cc(N3CCCCCC3)ccc2[N+](=O)[O-])c(=O)c2ccccc12 | inconclusive: 31.6 µM [inhibitor, full curve] |
| CSc1ccc(CN2CCSCC2)cc1 | active: 12.6 µM |
| S=C(c1cn(Cc2ccc(Br)cc2)c2ccccc12)N1CCOCC1 | active: 25.1 µM |
| O=C(NCc1ccc(F)cc1)n1cc(P(=S)(c2ccccc2)c2ccccc2)c2ccccc21 | inactive |
| CCOC(=O)C1CCCN(C2=NC(=O)/C(=C/c3ccc(N(C)C)cc3)S2)C1 (stereo not given) | inactive |
| CCOc1cccc(/C=N/NC(=S)Nc2cc(S(=O)(=O)N3CCOCC3)ccc2N2CCOCC2)c1O | inconclusive: 39.8 µM [inhibitor, single point] |
| Cc1oc(-c2ccccc2F)nc1CSCC(=O)NC1CC1 | inconclusive: 15.8 µM [inhibitor, single point] |
| CC(=O)Nc1ccc(C(=O)CSc2nnc(-c3ccc(O)cc3)n2CC2CCCO2)cc1 (stereo not given) | active: 79.4 µM |
| COc1ccc(-c2nc(SCC(=O)NCc3ccco3)c(-c3ccccc3)[nH]2)cc1OC | inconclusive: 89.1 µM [inhibitor, single point] |
| COc1ccccc1-n1c(CNC(=O)c2ccco2)n[nH]c1=S | inconclusive: 39.8 µM [inhibitor, single point] |
| O=C(Cc1ccccc1)NC(=S)Nc1ccc(OC(F)F)cc1 | inactive |
| COc1cccc(N2CCN(CC(=O)Nc3nnc(-c4ccccc4)s3)CC2)c1 | active: 89.1 µM |
| Cc1ccc(-n2nc3c(=O)n(CC(=O)NC4CCCCC4)nc(C)c3c2C)cc1 | inactive |
| Oc1c(Cl)cc(Cl)cc1/C=N/c1nc(-c2ccc(Cl)cc2)cs1 | inconclusive: 56.2 µM [inhibitor, partial curve] |
| CC(C)COP(=O)(c1ccc(N(C)C)cc1)C(O)c1ccccn1 (stereo not given) | active: 1.26 µM |
| Cc1cccc(CCNC(=O)c2nc(-c3ccc(Cl)cc3)n3c2CCCCC3)c1 | active: 14.1 µM |
| CN1CCc2c(sc3c2C(=O)NC(c2ccc(-c4ccc(Cl)cc4)o2)N3)C1 (stereo not given) | inconclusive: 39.8 µM [inhibitor, full curve, poor fit] |
| CCN1CCN(c2ncc3c(n2)CCN(Cc2ccc(C)s2)C3)CC1 | active: 79.4 µM |
| CC(=O)c1ccc(NC(=O)COc2ccccc2-c2nc(C)no2)cc1 | inconclusive: 20 µM [inhibitor, full curve] |
| CCOC(=O)Cn1cc(/C=N/N2C(=O)C3C4C=CC(C4)C3C2=O)c2ccccc21 (stereo not given) | inconclusive: 15.8 µM [inhibitor, partial curve] |
| S=c1[nH]nc(-c2ccco2)n1-c1ccc(Cl)cc1 | active: 31.6 µM |
| CC1=C(C(=O)OC2CCCC2)C(c2cccc(Cl)c2Cl)CC(=O)N1 (stereo not given) | inactive |
| CCOC(=O)C1=C(C)N(C)C(=O)NC1c1cccc2ccccc12 (stereo not given) | inconclusive: 15.8 µM [inhibitor, full curve] |
| Cc1ccc(Cl)cc1N1CCN(C(=O)c2cn(C)c3ccc(S(=O)(=O)N4CCCC4)cc3c2=O)CC1 | inactive |
